The source gives no read counts; variants with many changes may rest on few reads.
B1: LINE1-mini (parent)
chain: GGCAGAGCUCAACACAGCGUGGCAAAGUGGCUGUGGCUAGACUGCC

Variants of: B1
Assay: self-cleavage, relative activity (ratio to wild type); higher = more cleavage; in vitro, sequencing; the parent is a self-cleaving ribozyme

Variant	self-cleavage
U9C A26C U32G	0.04
U9A C18A G40C	0.02
U9A C31A G35U	0
U9C G19U C42A	0.03
C8U G17C A41U	0.13
C8U G21C C23U A24G A25G C46U	0.26
U9C G35U G40A	0.02
U9A C10A C15U G44U	0.04
C8U C15G G36A A39C	0.03
U9A C31G U34A G35U	0.03
C8U G19C G30U G36U	0.09
U9C A14C G21A G44A	0.02
C8U U38C G40C C45A	0.07
U9C C13G A16G G19U C23U U28C U34A G40A	0
C8U G29C G30A	0
U9A A16G C23U G27U U34G	0.16
U9C G30U U32G	0.02
C8U U9A A25C	0.19
U9C G36C C37A C46G	0.02
C8U U9A C13U C37U	0.13
C8U U20A C46U	0.06

Variant	self-cleavage
U9A G27U U28G	0.08
U9C G36C A41C	0.04
U9C A11U A14U G33U	0.02
U9C A11U G22U G35A A41U	0.01
C8U G33A G36C	0.06
C8U G33A G36U	0.1
U9C A26G G30A	0.04
U9C A14G G33U C42G	0.03
C8U G19C G21C	0.01
U9A G21C U34C G44C	0.01
C8U U9A A16G C31U U34C	0.05
C8U C31A C37A A41G	0.02
U9A G22A C31G G33C G36A G40C A41U C45U	0.13
U9A A12G G30C U34G G36A C37A	0.02
U9A G22A G40C C46A	0.07
C8U U20A C42U	0.34
C8U C15G A16U	0.09
U9A C10A C18U U32A C37G	0.01
U9C C15U A16C G36U	0.03
U9A A14G U34A C45A	0.15
U9A G22C C37A U38G	0

Variant	self-cleavage
U9A U20C A26C	0.03
U9A C10U G17U C23A G27U G30U	0.06
U9A G30C G33A U43C C45U	0.02
U9C C10U G17A G27C C37U A41G	0
C8U G19C C45A	0.05
U9C C10G G19A	0
U9C A25C G30A C46G	0.02
C8U G29C G44A	0.12
C8U C31A A41G	0.06
U9A C10G C15A	0.02
U9C G17A A26C G44C	0.01
U9A C15U C18U U43G	0
U9C C23A A25G	0.02
U9A G21A C23A A25U C31A G40U	0.03
U9C A14U G21A G30A G35A C37U G44U C46A	0.04
U9A G27C U28G G44A	0.09
U9A A12U C18A U34A	0.01
U9C G22C G40U	0.01
U9A G27C C31U	0.01
U9A U20G C37U C46G	0.06
U9A G17A C31U U32G	0.02

Variant	self-cleavage
U9A U34A C45G	0.29
U9A C10U A25U	0.03
U9A G36U C37U	0.01
U9A A26U C31U G33A C45G	0.34
C8U C23G C42G	0.08
U9C G19C G21A	0.01
U9A C10G C13A C15G C42U	0.05
C8U U38G A39G	0.2
U9A C15G G21U U32A	0.21
U9C A14U U20C G35C	0.1
U9A G17C C18A G29U U32C	0.1
C8U G17A G33U U34A C37G	0.02
U9A A11G G29U	0.08
U9C G21A C45G	0.02
U9C A25U C42G C45A	0
C8U C31G U32A G36U	0.27
U9A A14G A24U C31U	0.01
U9A G17A C18A C37A	0.01
U9A A11G G17C G27U G35U G44U	0
U9A G22C U32G	0.15
